# Results: publication PMC4336329 (PLoS ONE, 2015)
# The whole screen tested about 310,000 compounds, of which about 2,200 (0.71%) showed an effect of 50% or more. Effects have a minus sign here. Some of the results follow.
# Biological target: human ether-à-go-go-related gene (hERG) potassium channel (human, UniProt Q12809)
# Experiment: primary screen, population patch clamp on CHO cells stably expressing hERG
# Chain of human ether-à-go-go-related gene (hERG) potassium channel (Q12809 whole entry, looked up): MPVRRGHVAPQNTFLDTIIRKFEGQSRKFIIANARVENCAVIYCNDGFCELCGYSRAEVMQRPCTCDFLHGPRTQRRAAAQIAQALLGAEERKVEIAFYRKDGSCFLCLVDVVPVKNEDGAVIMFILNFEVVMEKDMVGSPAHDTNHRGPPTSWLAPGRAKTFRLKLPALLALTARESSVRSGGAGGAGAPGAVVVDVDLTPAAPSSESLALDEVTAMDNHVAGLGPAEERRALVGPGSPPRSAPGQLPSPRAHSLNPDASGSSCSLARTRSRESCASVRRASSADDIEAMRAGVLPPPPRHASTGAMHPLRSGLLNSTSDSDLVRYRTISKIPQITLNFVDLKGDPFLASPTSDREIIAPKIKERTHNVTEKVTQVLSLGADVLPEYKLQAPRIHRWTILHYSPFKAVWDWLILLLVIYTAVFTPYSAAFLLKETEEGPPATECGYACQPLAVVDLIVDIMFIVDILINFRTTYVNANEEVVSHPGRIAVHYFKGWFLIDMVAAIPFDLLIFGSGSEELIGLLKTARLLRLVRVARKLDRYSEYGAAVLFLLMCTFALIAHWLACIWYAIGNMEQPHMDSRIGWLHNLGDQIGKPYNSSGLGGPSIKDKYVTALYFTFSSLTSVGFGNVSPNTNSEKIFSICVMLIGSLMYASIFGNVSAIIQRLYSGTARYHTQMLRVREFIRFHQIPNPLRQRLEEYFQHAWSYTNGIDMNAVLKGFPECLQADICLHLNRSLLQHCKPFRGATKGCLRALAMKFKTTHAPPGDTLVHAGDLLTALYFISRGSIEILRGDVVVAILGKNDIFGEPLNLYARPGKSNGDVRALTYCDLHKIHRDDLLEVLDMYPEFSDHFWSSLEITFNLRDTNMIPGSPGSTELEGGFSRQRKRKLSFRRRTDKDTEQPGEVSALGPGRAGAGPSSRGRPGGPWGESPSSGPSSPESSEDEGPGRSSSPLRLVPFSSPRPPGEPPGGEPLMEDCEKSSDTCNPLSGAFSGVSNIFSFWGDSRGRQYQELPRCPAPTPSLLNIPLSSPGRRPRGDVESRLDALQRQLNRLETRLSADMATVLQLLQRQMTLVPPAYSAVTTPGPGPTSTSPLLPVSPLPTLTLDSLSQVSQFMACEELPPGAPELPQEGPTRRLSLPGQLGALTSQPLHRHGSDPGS
row,SMILES,"hERG current change (%, negative = inhibition) at 1uM"
1,O=C(Cn1c(=O)[nH]c2ccccc2c1=O)N1CCN(Cc2ccc3c(c2)OCO3)CC1,24.7%
2,O=C(CSc1ccc(C(F)(F)F)cc1[N+](=O)[O-])NCCOc1ccccc1,8.53%
3,O=C(CSc1nc2cc([N+](=O)[O-])ccc2n1-c1ccccc1)NCc1ccc2c(c1)OCO2,6.1%
4,CCc1ccc(NC(=O)[C@H](C)NC(=O)C2CCN(C(=O)[C@@H](N)C(C)C)CC2)cc1.Cl,-0.189%
5,COc1ccc(N2CCN(C(=O)c3ccc(NC(=O)C4=CSCCO4)cc3)CC2)cc1,-0.662%
6,CC(C)(C)c1ccc(C2CC2C(=O)N/N=C\c2ccc[nH]2)cc1 (stereo not drawn),11%
7,CC(C)CCNC(=O)Cn1c2c(c(-c3ccccc3Cl)cc1=O)CCC2,5.79%
8,COc1ccccc1N1C(=O)CC(Sc2nccc(C)n2)C1=O (stereo not drawn),11.1%
9,CCOc1ccc(C(=O)C(C)OC(=O)c2cnc(C)cn2)cc1 (stereo not drawn),3.56%
10,COc1cc(C(=O)Nc2cc(C(F)(F)F)ccc2-n2cncn2)cc(OC)c1OC,0.897%
11,Cc1ccc(C(=O)N/N=C\c2ccc[nH]2)cn1,19%
12,O=C1C2(CCC13COC(c1ccc(O)cc1)OC3)COC(c1ccc(O)cc1)OC2 (stereo not drawn),1.55%
13,CN=C(Nc1ccc2c(c1)OCO2)SC1CC(=O)N(c2ccccc2)C1=O (stereo not drawn),-9.59%
14,c1csc(CNc2ncnc3ccc(-c4ccc5c(c4)OCO5)cc23)c1,17.4%
15,CC(C)c1ccc(C2/C(=C(/O)c3ccc(F)cc3)C(=O)C(=O)N2CCCN2CCOCC2)cc1 (stereo not drawn),11.7%
16,COc1ccc2c(ccc[n+]2CC(=O)c2ccccc2)c1.[Br-],11.3%
17,O=C1CC2(CCN(C(=O)c3cccc([N+](=O)[O-])c3)CC2)Oc2ccccc21,-66.7%
18,COc1ccc(CCNC(=O)Cc2ccc3c(c2)OCO3)cc1OC,9.98%
19,O=C(CSc1nnc(Nc2ccccc2)s1)Nc1ccc(S(=O)(=O)N2CCOCC2)cc1,8.65%
20,O=C(NC1=NN(c2ccccc2)CC1)Nc1ccccc1F,7.23%
21,Cc1ccsc1C(=O)N1CCCC(C(=O)c2cc(F)ccc2F)C1 (stereo not drawn),9.07%

row,SMILES,"hERG current change (%, negative = inhibition) at 1uM"
1,CCCC(=O)Nc1nnc(CCN2CCCCC2)s1,-2.16%
2,O=C(O)CCC(=O)N1CCOc2ccc(Cl)cc21,7.02%
3,Cc1ccc(C)c(OC2=NS(=O)(=O)c3ccccc32)c1,16.1%
4,COc1ccc(NC(=O)C(=O)N/N=C(\C)CC(=O)Nc2cc(C)ccn2)c(OC)c1,10.7%
5,CCC(=O)Oc1ccc(C(=O)Nc2ccccc2C(=O)NCC(C)C)cc1,11%
6,CCc1nc(SCc2ccccn2)[nH]c(=O)c1C,9.33%
7,CCOCCc1nnc(NC(=O)CSc2ccccc2)s1,-16.5%
8,CCN(c1ccc(NC(=O)CSc2nnc3nc(C)cc(C)n23)cc1)C(C)C,17.9%
9,Cc1cc2nnc(SCC(=O)OC(C)C)n2c2ccccc12,4.81%
10,COc1cccc(C(=O)NC2CCCC2)c1,2.56%
11,COc1ccc(CC(NC(C)=O)C(=O)NC2CCN(S(=O)(=O)c3ccc(NC(C)=O)cc3)CC2)c(OC)c1 (stereo not drawn),9.13%
12,CCn1cc(CNC(=O)c2cc(Cl)ccc2OC)c(C)n1,19%
13,O=C(COC(=O)c1cccc(O)c1)Nc1ccc(N2CCOCC2)cc1,-1.32%
14,CC1Cc2ccccc2N1CC(=O)NC(=O)NCc1ccccc1 (stereo not drawn),6.13%
15,O=C(NCCN1CCN(S(=O)(=O)c2ccc(F)cc2)CC1)C(=O)NCc1ccccc1,9.7%
16,CCOc1ccc(CCNC(=O)CCc2c(C)nc3ncnn3c2C)cc1OCC,-13.1%
17,COc1ccc(C2=NN(c3nc(-c4ccc(CNC(C)=O)cc4)cs3)C(c3ccco3)C2)cc1 (stereo not drawn),15.6%
18,CCc1ccccc1Nc1nc(N)nc(COC(=O)c2cccn2C)n1,-5.36%
19,COc1ccc(N2CCN(C3CCCN(C(=O)CN4CCCC4=O)C3)CC2)cc1 (stereo not drawn),14.3%
20,CN1CCN(c2nc3c(c(=O)[nH]c(=O)n3C)n2Cc2cccc(Br)c2)CC1,-6.41%
21,Cc1cc2c(=O)n(C)c(SCC(=O)Nc3cccc(F)c3)nc2s1,10.3%
